Results: PubChem BioAssay AID894 (National Center for Advancing Translational Sciences (NCATS), 2007)
Screen size: about 150,000 compounds; about 6,500 (4.3%) were called active. Inconclusive results, whose numbers are uncertain, are shown with a selection of clear calls. Calls come from the whole dose curve; as a rule, active = well fitted inhibition curve with a large enough effect (not every such curve was filed as active); inconclusive = small, poorly fitted or top-dose-only effect, or another doubt; inactive = no such curve, though single readings can be large or run the other way. No potency is given beside an inconclusive call; the fits are too rough.

Target: 15-hydroxyprostaglandin dehydrogenase [NAD(+)] (Homo sapiens) (UniProt P15428)
Assay: qHTS Assay for Inhibitors of HPGD (15-Hydroxyprostaglandin Dehydrogenase)
Conditions: purified HPGD, NADH fluorescence kinetic, PGE2 substrate; activity change, negative = inhibition: stronger effect = lower value
In short: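 20 nM HPGD preincubated 15 min at room temperature with compound in 50 mM Tris-HCl pH 8, 0.01% Tween 20. Started with 1 mM NAD+ and 30 uM prostaglandin E2; NADH fluorescence (360/450 nm) read 5 times over 30-s intervals, last minus first.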
% is set by controls: 0 for no effect and ±100 for the full control effect; potency is the fitted concentration of half-maximal effect; tags give direction and shape of the fitted curve.

Chain of UniProt P15428 (P15428 whole entry, looked up): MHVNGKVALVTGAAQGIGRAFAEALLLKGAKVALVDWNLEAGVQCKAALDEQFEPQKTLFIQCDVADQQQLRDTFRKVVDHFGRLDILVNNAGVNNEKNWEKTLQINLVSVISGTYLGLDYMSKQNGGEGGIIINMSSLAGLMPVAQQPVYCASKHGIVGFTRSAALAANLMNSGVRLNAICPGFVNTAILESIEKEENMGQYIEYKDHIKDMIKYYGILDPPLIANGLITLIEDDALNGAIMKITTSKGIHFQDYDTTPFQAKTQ

SMILES | Potency | activity change, negative = inhibition
COc1ccc(-c2nn(-c3ccccc3)cc2/C=N/NC(=O)c2cccc(S(=O)(=O)Nc3ccccc3OC)c2)cc1 | inconclusive [inhibitor, partial curve] | 
CC(=O)Nc1cccc(-c2nc3ccc(NC(C)=O)cc3[nH]2)c1 | inconclusive [inhibitor, partial curve] | 
O=S(=O)(Nc1ccc(Oc2ncccn2)c(Cl)c1)c1ccc(F)cc1 | active: 35.5 µM | 
CC(C(=O)N1CCOCC1)N1c2cccc3cccc(c23)S1(=O)=O (centres undefined) | inconclusive [inhibitor, partial curve] | 
CCCCCCCCCCCCCCCC[n+]1ccc(C(N)=O)cc1 |  | inactive: -2.15%
CC(C)NC(=O)CSc1nc(-c2cccs2)cc(-c2ccccc2)c1C#N | inconclusive [inhibitor, partial curve] | 
N#Cc1cc(C#N)c(N2CCN(c3cccc(Cl)n3)CC2)nc1N | inconclusive [inhibitor, single point] | 
COC(=O)c1ccc2c(c1)S(=O)(=O)NC(=NCc1ccco1)S2 | active: 14.1 µM | 
CC1(C)Cc2c(C#N)c(N3CCN(C(=O)c4ccccc4Cl)CC3)nc(-c3ccco3)c2CS1 | inconclusive [inhibitor, partial curve] | 
COC(=O)C1=NN(N=O)C2(CC(=O)N(c3cc(C)cc(C)c3)C2=O)C1 (centres undefined) | active: 31.6 µM | 
CCCN(CCC)C(=O)c1ccc2c(c1)OCO2 | active: 25.1 µM | 
CCCCn1c(=O)[nH]c(=O)c2c1nc(-c1ccsc1)n2Cc1ccccc1 | inconclusive [inhibitor, partial curve] | 
Cc1ccc(C2CC(=O)Oc3cc(C)c(Br)c(C)c32)cc1 (centres undefined) |  | inactive: -7.19%
CCC(C)NC(=O)C1CCCN1S(=O)(=O)c1ccc(Cl)cc1 (centres undefined) |  | inactive: -11.7%
O=C(COC(=O)c1c2c(nc3ccccc13)CCCC2)c1cccs1 | inconclusive [inhibitor, full curve] | 
COc1cccc(C(=O)CSc2nc3ccccc3n2CC(=O)N(C(C)C)C(C)C)c1 |  | inactive: -7.7%
CC[C@H]1C(c2ccc(F)cc2)=NN(c2ccccc2)[C@@H]1CO | inconclusive [inhibitor, partial curve] | 
COCCSc1ccccc1C(=O)N1CCOCC1 |  | inactive: -9.84%
CN=C1S/C(=C\c2cc(C)n(-c3ccccc3F)c2C)C(=O)N1C | active: 22.4 µM | 
Cc1nc(-c2ccccc2)sc1-c1nc(-c2ccccc2)ncc1S(=O)(=O)c1ccccc1 | inconclusive [inhibitor, partial curve] | 
O=S(=O)(c1ccc2c(c1)OCCO2)N(Cc1ccc(F)cc1)Cc1nnc(-c2cccs2)o1 | active: 4.47 µM | 
CCOC(=O)N1CCN(C(=O)Nc2ccc3nccnc3c2)CC1 | inconclusive [inhibitor, single point] | 

SMILES | Potency | activity change, negative = inhibition
COc1cc(NC(=O)c2ccc(Br)o2)c(C(=O)O)cc1OC | inconclusive [inhibitor, partial curve, poor fit] | 
CCOC(=O)CCSc1nc(C)c2cc(OC)ccc2n1 | inconclusive [inhibitor, partial curve] | 
Cc1cc(C)cc(NC(=O)C(=O)NCc2ccccn2)c1 |  | inactive: 2.03%
CN(C)Cc1ccc(C(C)(C)C)cc1-c1cc(C(C)(C)C)ccc1CN(C)C |  | inactive: -11.3%
CCOC(=O)C1CCCN(c2c(Nc3ccc(C)c(C)c3)c(=O)c2=O)C1 (centres undefined) |  | inactive: -19.8%
CCOc1ccc(-c2c(C(=O)N/N=C/c3ccc(OC(C)C)cc3)nnn2-c2nonc2N)cc1 | inconclusive [inhibitor, single point] | 
CCCN(CCC)CCCNC(=O)c1cc2c(=O)n(C)c3ccccc3c2n1C | inconclusive [inhibitor, partial curve] | 
O=C(c1ccco1)N1CCN(C(c2ccc(Cl)cc2)c2nnnn2CC2CCCO2)CC1 (centres undefined) |  | inactive: -6.6%
CCOC(=O)c1sc(NC(=O)c2cccs2)cc1C | inconclusive [inhibitor, partial curve] | 
O=C(Oc1cc(=O)n2ccccc2n1)c1ccccc1 | inconclusive [inhibitor, partial curve, poor fit] | 
Cc1cccc(C(=O)NC(=S)Nc2ccccc2C(F)(F)F)c1 |  | inactive: -9.97%
CCc1ccc(C(=O)c2cncc(Br)c2)cc1 |  | inactive: -13.7%
CSc1ccc(C(=S)N2CCN(C(c3ccccc3)c3ccccc3)CC2)cc1 | active: 14.1 µM | 
CC(C)CCn1c(CN2CCN(C(=O)c3ccco3)CC2)nc2c1c(=O)n(C)c(=O)n2C |  | inactive: 1.06%
CC(=O)Oc1ccc(C(=O)[C@H]2[C@H]3C(=O)N(c4ccccc4)C(=O)[C@H]3[C@@H]3C=CC=NN32)cc1 | inconclusive [inhibitor, single point] | 
Cn1c(C(=O)N2CCCC2)cc2c(=O)n(C)c3ccccc3c21 | active: 22.4 µM | 
O=C(NCCCN1CCOCC1)c1cc2c(=O)[nH]c3ccccc3c2s1 | inconclusive [inhibitor, partial curve] | 
Cc1ccc(C)c(CN2C(=O)C3CCCN3c3ccc(S(=O)(=O)N4CCOCC4)cc32)c1 (centres undefined) | inconclusive [inhibitor, partial curve] | 
O=c1[nH]c2cc3c(cc2cc1CN(Cc1cccs1)Cc1nnnn1Cc1ccco1)OCCO3 | inconclusive [inhibitor, single point] | 
O=C(NN1C(=O)c2ccccc2NC1c1ccccn1)c1ccccc1 (centres undefined) | inconclusive [inhibitor, partial curve] | 
CCOC(=O)c1cc2c(=O)n3ccccc3nc2n(CC(C)C)c1=NC(=O)c1c(-c2c(F)cccc2Cl)noc1C | inconclusive [inhibitor, partial curve] | 
COc1cccc2sc(NC(=O)c3ccc(Br)s3)nc12 | inconclusive [inhibitor, partial curve] | 
